Experimental data: PubChem BioAssay AID360 (National Center for Advancing Translational Sciences (NCATS), 2006)
The campaign covered roughly 48,000 compounds. About 550 (1.1%) were called active. Inconclusive results (about 4%) are left out. Rule as the data show it: active = potency below about 15 µM; inconclusive = mostly about 16 µM to 33 µM; inactive = weaker than that. Some of the results follow.

Biological target: Lysosomal acid glucosylceramidase (Homo sapiens) (UniProt P04062)
Assay: Glucocerebrosidase;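 also: the screen sought inhibitors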
Conditions: purified enzyme, resorufin glucoside fluorescence (screen aimed at inhibitors), 20 min
Method in brief: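 Compounds titrated against 0.2 nM normal enzyme, 30 uM resorufin beta-D-glucopyranoside substrate, citrate/phosphate buffer with taurocholate and tween-20, pH 5.9. Reaction ran 20 min at room temperature; fluorescence (Ex 548/Em 600) gave AC50.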
Potency is read from the fitted curve at half-maximal effect.

Sequence of UniProt P04062 (P04062 whole entry, looked up): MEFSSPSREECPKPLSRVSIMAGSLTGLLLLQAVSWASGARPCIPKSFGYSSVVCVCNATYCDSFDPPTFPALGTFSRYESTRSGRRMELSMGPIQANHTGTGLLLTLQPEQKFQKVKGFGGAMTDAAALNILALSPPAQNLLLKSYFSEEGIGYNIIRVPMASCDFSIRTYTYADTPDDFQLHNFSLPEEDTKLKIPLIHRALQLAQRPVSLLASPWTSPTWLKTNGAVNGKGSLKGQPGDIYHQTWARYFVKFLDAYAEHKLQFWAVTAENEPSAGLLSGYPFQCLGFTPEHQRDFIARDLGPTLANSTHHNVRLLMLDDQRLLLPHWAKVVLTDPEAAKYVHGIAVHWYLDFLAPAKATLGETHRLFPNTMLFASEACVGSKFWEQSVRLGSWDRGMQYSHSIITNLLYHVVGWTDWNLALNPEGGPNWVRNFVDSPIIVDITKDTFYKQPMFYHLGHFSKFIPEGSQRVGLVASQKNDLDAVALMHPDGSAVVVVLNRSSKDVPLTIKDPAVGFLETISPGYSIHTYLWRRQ

Potency, inactive:
Cc1c(CN2CCN(c3cccc(C(F)(F)F)c3)CC2)c(=O)n(-c2ccccc2)n1C > 76.9 µM
COc1ccc2[nH]c(=O)c(CN(CCN(C)C)C(=O)NCc3ccccc3)cc2c1 > 76.9 µM
COc1cccc(-c2cc(C(=O)Nc3cnn(Cc4ccccc4C)c3)no2)c1 > 76.9 µM
CC(C)NC(=O)C1(O)c2ccccc2NC(=O)N1c1ccc(Cl)c(Cl)c1 (centres undefined) > 76.9 µM
c1cc2c(nn1)CCc1nonc1-2 > 76.9 µM
COCCn1c(C)cc(C(=O)COC(=O)c2ccc3ncsc3c2)c1C > 76.9 µM
COc1ccc(CC(=O)N(Cc2cc3cc(OC)ccc3[nH]c2=O)C(C)C)cc1 > 76.9 µM
c1ccc2c(c1)CCCC2C1=NCCN1 (centres undefined) > 76.9 µM
S=c1[nH]nc(COc2ccc3c(c2)OCO3)n1-c1ccccc1 > 76.9 µM
O=C(CSc1nc2ccccc2n1CC(=O)N1CCCC1)Nc1nccs1 > 76.9 µM
Cc1ccc(SCc2[nH]nc3c2C(c2cccnc2)C(C#N)=C(N)O3)cc1 (centres undefined) > 76.9 µM
O=C(Cn1nnc(-c2ccc(CN3CCOCC3)cc2)n1)Nc1nc(-c2ccccc2)cs1 > 76.9 µM
COc1ccc(N2CCN(C(=O)c3cc4c(-c5cccc(OC)c5)nn(C)c4s3)CC2)cc1 > 76.9 µM
COc1ccc2[nH]c3c(=O)n(Cc4ccco4)cnc3c2c1 > 76.9 µM
O=P(c1ccc2c(c1)OCCO2)(N1CCOCC1)N1CCOCC1 > 76.9 µM
Cc1cn(C(=O)CN2C(=O)c3ccccc3C2=O)c(C)n1 > 76.9 µM
O=C(Cn1cc(/C=N/O)c2ccccc21)N1CCOCC1 > 76.9 µM
COCCOC(=O)c1c(C)oc2ccc(NS(=O)(=O)c3ccccc3)cc12 > 76.9 µM
CCOC(=O)CCCOC(=O)c1ccc(S(=O)(=O)N(C)C)cc1 > 76.9 µM
CCCC(=O)Nc1ccccc1NC(=O)CN(C)S(=O)(=O)c1ccc(C)cc1 > 76.9 µM
O=C(Cn1nc(-c2ccccc2)c2ccccc2c1=O)NCC1CCCO1 (centres undefined) > 76.9 µM
COc1cc2c(cc1OC)C(c1ccc3c(c1)OCO3)C1=C(CC(C)(C)CC1=O)N2 (centres undefined) > 76.9 µM
O=C(COc1ccc(Cl)cc1)Nc1ncccn1 > 76.9 µM
CCOC(=O)C1CCCN(C(=O)CN2C(=O)COc3ccc(C(C)(C)C)cc32)C1 (centres undefined) > 76.9 µM
